Data taken from PubChem BioAssay AID463173 (ICCB-Longwood Screening Facility, Harvard Medical School, 2010).
Screen size: about 52,000 compounds; about 4,300 (8.3%) were called active. Rule as the data show it: active = survival mostly below about 52% (no sharp cut-off); inactive = mostly above about 56%. This is one part of the list.

system: DeltatarO mutant; experiment: growth inhibition of S. aureus wild type versus tarO mutant, primary screen, teichoic acid synthesis inhibitors, RN4220, OD600 (AID 463173); conditions: OD600, 18 h, hits give low values, screened at 18.75 µg/mL (by protocol)

Row | SMILES | survival
1 | O=C(Nc1ccc(Br)cc1)c1ccc(F)c(S(=O)(=O)N2CCCc3ccccc32)c1 | inactive: 90%
2 | CC(=O)Nc1ccc(N(C)C(C)=O)cc1 | inactive: 97%
3 | CN=C1SC(CC(=O)NC)C(=O)N1C (stereo unspecified) | inactive: 86%
4 | O=C(COc1ccc(Br)cc1Cl)Nc1ncn[nH]1 | inactive: 91%
5 | COc1ccc(OCC(=O)Nc2ccc3c(c2)nc(CCNC(=O)c2ccco2)n3C)cc1 | inactive: 63%
6 | CCc1ccc(NC(=O)CSc2nc(-c3ccccc3Cl)nc3c2Cc2c(CO)cnc(C)c2O3)cc1 | inactive: 117%
7 | COCCCNC1CC(=O)N(c2ccc(OC)cc2)C1=O (stereo unspecified) | inactive: 75%
8 | CC(C)NC(=O)c1ccc(-n2c(-c3ccccc3)cc3c2CCCC3)cc1 | inactive: 77%
9 | CCC(=O)c1cc2c(cc1NC(=O)c1cccc(Cl)c1)OCCO2 | inactive: 105%
10 | CCc1nnc2c(Nc3cccc(F)c3)nc3ccc(C(=O)c4ccccc4)cc3n12 | inactive: 76%
11 | CCOC(=O)c1cccc(NC(=O)c2cc3c(=O)n(C)c4ccccc4c3n2C)c1 | inactive: 72%
12 | Cc1cc(C)cc(NC(=O)c2ccc3c(c2)nnn3C2CCCC2)c1 | inactive: 128%
13 | Cc1ccc(CNC(=O)CCN2C(=O)COc3ccc(C)cc32)cc1 | active: 50%
14 | Cc1ccc(NC2=C(CC(=O)O)C(c3ccc(F)cc3)N(c3ccc(C)cc3)C2=O)cc1 (stereo unspecified) | inactive: 58%
15 | CC(C)c1cnc2c(c1SCC(=O)Nc1ccc(OC(F)(F)F)cc1)c(=O)n(C)c(=O)n2C | inactive: 78%
16 | O=C(c1cc(-c2cccc(Cl)c2)on1)N1CCN(c2ccccc2)CC1 | active: 23%
17 | O=C(CCCN1C(=O)c2cccnc2Oc2ccc(Cl)cc21)NCc1ccccc1F | inactive: 75%
18 | CCN(CC)CCOC(=O)c1ccc(NC(=O)c2nn(C)c3c2COc2ccccc2-3)cc1 | inactive: 60%
19 | Cc1ccc(S(=O)(=O)C(CNC(=O)c2ccc(F)c(F)c2)c2ccco2)cc1 (stereo unspecified) | active: -5%
20 | CCC(=O)C1=C(c2ccc(Cl)cc2)N(C(=O)CC)n2c(C)nnc2S1 | inactive: 108%
21 | CCS(=O)(=O)c1ccc(O)c(Nc2cc(C)nc(SC)n2)c1 | inactive: 100%
22 | O=C(CSc1oc(-c2ccco2)nc1S(=O)(=O)c1ccc(Br)cc1)c1ccccc1 | active: 47%
23 | CCCCn1c(=O)c2oc3ccccc3c2n(Cc2cccc(F)c2)c1=O | inactive: 66%
24 | Nc1cc(N)nc(SCC(=O)N2CCCCC2)n1 | inactive: 101%
25 | CCC(C)Cn1c(/C=C/c2ccccc2)nc2ccccc21 (stereo unspecified) | active: -1%
26 | CCOc1ccc(-c2nonc2NC(=O)c2oc3cc(C)c(C)cc3c2C)cc1OCC | active: 43%
